In the supplement of paper PMC11417369:
Some of the results follow.

tested on: PfHDP1 homeodomain (GST-tagged); experiment: gcPBM binding intensity (ln(normalized median fluorescence intensity)); higher = stronger DNA binding
Outline: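 The highest Masliner-normalised natural-log median intensity across replicate spots of either probe orientation is reported as binding intensity. GST-tagged P. falciparum DNA-binding domains expressed in E. coli were applied for 1 h to an Agilent 4 × 180k array of primer-extended double-stranded 36-bp intergenic genomic probes plus negative controls, and bound protein was detected with Alexa488 anti-GST antibody and scanned at 488 nm.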

Sequence | gcPBM binding intensity (ln)
ATAACAAAAAAAAAGGTGCTACAAAATGAATAAAAA [GTGCAC_site9659] | 6.59
AATATAAATAATTATACACACTTAATATATATATAC [CACACA_site5533] | 6.53
GTTTGAATGGCGCACTGTACACATATATACATATAG [XGTACX_site8619] | 7.36
ACAAAATTATGTAGATGTACAGACATAGAAAGAGAT [XGTACX_site3096] | 7.11
ATTTATGAAAAATGTACACACATCAAATGCTTATAT [CACACA_site4068] | 6.78
TTATGGTGCAACATTATGCACACCGTTAAATAACTA [CACACA_site3846] | 11.4
ATTTATTTTGTTGTTGTTTTTATTTGATTGTTTTAT [CACACA_negctrl_site1275] | 6.89
TTATTTTATTTTTGTGCACACTGATAAATTGAAAAG [CACACA_site2949] | 11.2
CGTTTTCTATATCATTGTACATATTCATGTGTAAAT [XGTACX_site2741] | 6.41
AACAGACGAAGACACACACACATATATATATATATA [CACACA_site1020] | 9.28
TAAAAGTTCACCTGTACACACATATAAATATGTACA [CACACA_site6901] | 6.44
ATTAATAAATTCAATTGTACTTGTTTATACATAAAA [XGTACX_site3733] | 6.53
AAAATTAACCGTAACACACACACATATAAATATGTA [CACACA_site7791] | 6.55
TTGTTTAAGTCACGAACACACATATATCATCAATTT [CACACA_site986] | 6.52
CAATAAAGAGGGAATTGTACTTTAAATATCCCTCTT [XGTACX_site1991] | 5.89
AAAATAAAATAAAATACACACATACATACATACAAA [CACACA_site5366] | 6.89
ATATATCACAATAAAATTTATAGAATTTTAAATAAG [TGCATGCA_negctrl_site437] | 6.23
AATATATTTCGAGATACACACATATATAAAAAAAAA [CACACA_site3398] | 6.67
AAAAAAAAAAAAAAGACACACAATGTGAAATAATAA [CACACA_site804] | 6.32

Sequence | gcPBM binding intensity (ln)
AATAGAACAAATAAAACACACACATATATATATATA [CACACA_site8893] | 9.36
TATATAGAAAACAAGGCATGCAAATAACAAATTGTG [TGCATGCA_site473] | 7.33
ATATAATATATGTAAGTGCGCTTATAAATAAAACGA [GTGCAC_site9841] | 6.78
ATATATTGATATATGTGTACATAGCTTATTTCATTT [XGTACX_site1800] | 6.43
TTTTTAATTATTTATATAACGATAATCCTTACATAA [TGCATGCA_negctrl_site180] | 6.14
AAAAAAAAAAAAAAAGTGCACTGAAAATATATTGAA [GTGCAC_site9395] | 10
AACAAAAATGAAAAAACACACATAACATATATAAAT [CACACA_site740] | 7.11
ATAATATAAATAAAAACACACACAATCGTACATATA [CACACA_site9223] | 7.02
ATAGTAAATATAAAAAGTACTGATTCTTAAATTGTT [XGTACX_site5972] | 6.47
GTTCAATCGGGTGTTACTTCAAACAAGGAACAACAA [TGCATGCA_negctrl_site471] | 6.16
ACTTGACACCAACACACACACATATATAAAAAAAAA [CACACA_site756] | 7.08
TATTTTATTGTTGTTATACACACCATATAAAATATT [CACACA_site1630] | 6.68
AATATTTTAAATATTGCATGCAATGAAAAATGTAAA [TGCATGCA_site139] | 7.73
TTTTAAAGAAAATATTTTATCATTATTTTTTGTACT [CACACA_negctrl_site1648] | 6.23
TCTTATTTTTTTATATATACAAAGTTTTATATATAT [GTGCAC_negctrl_site314] | 6.73
AACATATATTAGCTTACATGCAAAAAGTAAAAAAAT [TGCATGCA_site10] | 6.9
ATATATATATATGCATGTACATATTTATCTTTATAT [XGTACX_site232] | 9.17
AAAACATCAAAAATGTGTACATATATATATATATAT [XGTACX_site8884] | 9.36
AATTTAAAACGGAGATGTACATATATAAATATATAC [XGTACX_site3723] | 6.14

Sequence | gcPBM binding intensity (ln)
TATATATCTGTGAAAATACTTAAATTGTTATAAAAA [CACACA_negctrl_site1109] | 6.06
CGGCTATTTCTATATACATGCATTTAAAAAAAAAAT [TGCATGCA_site354] | 6.41
ACCTATTTCAAACACACACACACACTAACAAACATA [CACACA_site8233] | 7.24
AAAAAAAAAATGAGCACACATAAATAAAAACAAACA [CACACA_site1573] | 7.39
CTAATCGTGCACAACTGTACATTTGTCAAGGGCAAT [XGTACX_site8662] | 10.8
ATGTGAACATTCAATGCACACGATGTAATTATACAT [CACACA_site15] | 9.65
TTTTTAATATATATCACACATATATATTTTTAATTA [CACACA_site6099] | 6.44
ATAAAAATCTTTAGTAGTACATTATAAAAAACTATT [XGTACX_site5531] | 6.31
TATACAATATATATAACACACATATTTATATAAAAT [CACACA_site5061] | 6.58
ACAAATCTATAAGAGTGTACGAACAGTAAAGGAATT [XGTACX_site2070] | 7.15
AACATAAAAATTGAAGCACACACACTAATGAAATAC [CACACA_site8287] | 7.19
AAAATACCATTTGAAACACACAAAAAAAAAAAAAAT [CACACA_site2981] | 6.26
CAGTTGGAAGGAAAGTGTACATAAAAAAAAATATAA [XGTACX_site8784] | 6.69
ATAAAAATTAAAAGGAGTACTTAAATATTAAGATGG [XGTACX_site4815] | 6.54
TTTAAAAATATATATTGTACATATATATATCTATGA [XGTACX_site3556] | 6.35
TTTATTTAAAAAATAAAAAAAAAAAAAAAAAAAAAA [CACACA_negctrl_site1670] | 6.17
TACTATTTAAAATTTGAACACACATTATTTATTTTA [CACACA_site9020] | 6.32
AGTTATTTTAAATGTAGTACACAAAAGAAATATTAA [XGTACX_site4092] | 6.66
